In PubChem BioAssay AID1346428 (National Center for Advancing Translational Sciences (NCATS), 2018) one finds activation data, which are given here for 83 molecules.

Among all 48,000 compounds or so, about 1,200 (2.5%) were called active. Another 2% or so got no clear call; they are omitted.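 The calls were made as follows: active = activation of at least 60% and not above a set upper limit (about 1 call in 100 departs from these limits); inconclusive = activation of 40% to 60%, or above that upper limit; inactive = activation under 40%.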 The list shows a part of the results.

UniProt O75388, sequence (O75388 whole entry, looked up): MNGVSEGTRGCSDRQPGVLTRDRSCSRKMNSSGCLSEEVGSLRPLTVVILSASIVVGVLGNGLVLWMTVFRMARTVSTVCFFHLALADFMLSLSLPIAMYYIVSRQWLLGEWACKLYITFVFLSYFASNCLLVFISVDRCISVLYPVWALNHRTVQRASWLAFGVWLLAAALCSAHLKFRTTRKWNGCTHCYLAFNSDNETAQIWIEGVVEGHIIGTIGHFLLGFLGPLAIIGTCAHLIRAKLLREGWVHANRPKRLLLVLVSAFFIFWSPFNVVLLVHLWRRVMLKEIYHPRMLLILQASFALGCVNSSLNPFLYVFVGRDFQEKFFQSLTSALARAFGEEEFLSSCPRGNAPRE

In the assay the target is Probable G-protein coupled receptor 32 (Homo sapiens) (UniProt O75388). The assay is described as follows: qHTS for Agonists of Human Resolvin D1 Receptor DRV1. Also: 0% is about no effect. To be noted: CHO-K1 GPR32 beta-arrestin PathHunter luminescence, 90 min; at 76.9 µM; active compounds read high; zero percent set by DMSO-only wells. The procedure, abridged:
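Luminescent readout of beta-Gal complementation quantifies ligand-induced beta-arrestin association with GPR32 in CHO-K1 cells; 90 min compound incubation at 37 °C, detection 1 h at room temperature.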
Background: Quantitative high-throughput screening tests each substance at several concentrations.
For the molecule `COc1ccccc1CNC(=O)C1CCN(S(=O)(=O)c2ccc3c(c2)CCCN3C(C)=O)CC1`, the activation was inactive: -1.32%.

For `CCc1ccc(CNC(=O)c2cc3c(=O)n(Cc4cccs4)ccc3nc2C)cc1`, the activation is inactive: -27.9%.

Turning to `CCC(C(=O)NC1CCC(C)CC1)n1nc(C)c2sc3ccccc3c2c1=O` (stereo not drawn), the activation is inactive: -16.7%.

On to `CCc1nc2nc(C)c(NS(=O)(=O)c3ccc(C)cc3)c(=O)n2[nH]1`, for which the activation was inactive: 14.6%.

Consider `CN(C)CCNC(=O)C(=O)NCC(c1cccnc1)N1CCN(c2ccc(F)cc2)CC1` (stereo not drawn), for which the activation is inactive: -3.94%.

On to `CCOc1ccccc1NC(=O)Cn1nnc(C(=O)NCc2ccc(F)cc2)c1N`, for which the activation was inactive: -9.78%.

Take `COc1ccc(Cn2ccc3nc(C)c(C(=O)N4CCN(c5ccc(OC)cc5)CC4)cc3c2=O)cc1`: the activation is inactive: -14.1%.

Consider `Cc1nc2c(OCc3ccccc3)cccn2c1CC#N`, for which the activation is inactive: 3.2%.

Turning to `Cc1cc(C)cc(NC(=O)Cc2c(C(=O)O)c(C)cn2C)c1`, the activation was inactive: 0.889%.

On to `O=C(Cn1cc(SCc2ccccc2F)c2ccccc21)N1CCCCC1`, for which the activation is inactive: -9.03%.

In the case of `O=C(NCc1ccco1)c1ccc2c(c1)N(Cc1c(F)cccc1Cl)C(=O)c1ccccc1S2`, the activation is inactive: -10.6%.

With `COc1ccc(-c2c(C)nn3c(C(F)(F)F)cc(-c4ccccc4)nc23)cc1`, the activation is inactive: -21.7%.

As for `COc1ccc(OC)c(NC(=O)c2cc(C3CC3)nc3c2c(C)nn3-c2ccc(C)cc2)c1`, the activation is inactive: 1.8%.

`COc1ccc(C(=O)NCc2ccc3c(c2)CCN3C(=O)c2ccc(C)cc2)cc1`: the activation is inactive: -23%.

As for `CCCCCCCCCCCCCCCCC(C(=O)O)C(O)(CC(=O)O)C(=O)O` (stereo not drawn), the activation is inactive: 12.3%.

Regarding `Cc1ccc(-n2nc3ccc(NC(=O)COc4ccccc4)cc3n2)cc1Cl`, the activation is inactive: -13.7%.

For `Cc1cccc(-n2c(=O)c3ccccc3n(Cc3ccccc3)c2=O)c1`, the activation is inactive: -35.4%.

For `CCOc1ccc(-n2c(=O)c3c4c(sc3n(CC(=O)NC(C)CC)c2=O)CCCC4)cc1` (stereo not drawn), the activation is inactive: 6.24%.

In the case of `Cc1ccc(CNC(=O)C2CCN(Cc3nc(-c4cccc(Br)c4)oc3C)CC2)cc1`, the activation was inactive: -8.93%.

`CC(=O)c1cccc(NC(=O)C2CCN(S(=O)(=O)c3ccc4[nH]c(=O)ccc4c3)CC2)c1`: the activation was inactive: -14.9%.

As to `CCOc1ccc(N(CC)C(=O)c2nn(-c3ccc(OC)cc3)c(=O)c3c2c2ccccc2n3C)cc1`, the activation was inactive: -8.56%.

Turning to `O=C(CSc1nc2c([nH]c3ccccc32)c(=O)n1-c1cccc(C(F)(F)F)c1)N1CCc2ccccc21`, the activation is inactive: -7.62%.

Consider `CCc1cc2c(cc(C(=O)OC)n2Cc2nc(-c3ccc(C)cc3)oc2C)s1`, for which the activation was inactive: -18.1%.

Turning to `Cc1c(C(=O)N2CCC(C)CC2)c(S(=O)(=O)Nc2cccc(C(F)(F)F)c2)c(C)n1C`, the activation was inactive: -14.9%.

As for `COc1ccc(OC)c(CCNC(=O)c2cnn(-c3ccc(C)cc3C)c2C2CCN(C(=O)OC(C)(C)C)CC2)c1`, the activation was inactive: -24.5%.

For `CCOC(=O)c1c(NC(=O)COc2ccc(C)cc2C(C)(C)C)sc2c1CCC(C)C2` (stereo not drawn), the activation was inactive: 7.69%.

In the case of `Cc1nn(S(=O)(=O)c2ccc(C(C)(C)C)cc2)c(C)c1S(=O)(=O)N1CCC(C)CC1`, the activation is inactive: 0.525%.

On to `Cc1ccc(Cn2c(CNC(=O)Cc3cccc(C)c3)nc3cccnc32)cc1`, for which the activation is inactive: -14.4%.

For the molecule `CC(=O)c1ccc(N2CCN(S(=O)(=O)c3cc(-c4noc(C)n4)ccc3C)CC2)cc1`, the activation was inactive: 13.6%.

`COc1ccc(CNC(=O)Cn2c(=O)ccc3cc(S(=O)(=O)N4CCCC4)ccc32)cc1`: the activation is inactive: 11.5%.

Turning to `CC(=O)Nc1ccc(NC(=O)C2(c3cccs3)CCOCC2)cc1`, the activation was inactive: -8.47%.

`COCCN1C(=O)c2oc3ccc(C)cc3c(=O)c2C12C(=O)N(C)c1ccccc12` (stereo not drawn): the activation is inactive: -7.97%.

In the case of `COC(=O)c1cc2oc3ccccc3c2n1Cc1nc(-c2cccc(C)c2)oc1C`, the activation is inactive: 0.674%.

Regarding `COc1ccc2[nH]cc(CCNC(=O)c3cnn(-c4ccc(C)cc4)c3C3CCN(C(=O)OC(C)(C)C)CC3)c2c1`, the activation was inactive: -22.6%.

In the case of `COc1ccccc1CNC(=O)c1cnc(SC)nc1C`, the activation is inactive: 23.8%.

On to `COCC(=O)Nc1cccc(-c2nc3cccnc3s2)c1`, for which the activation was inactive: -9.52%.

Regarding `CC(C)N(Cc1ccccc1)C(=O)C1CCCN(c2ncnc3onc(-c4ccc(F)cc4)c23)C1` (stereo not drawn), the activation was inactive: -8.99%.

As to `CCOC(=O)c1ccc(N2C(=O)c3[nH]nc(-c4ccc(OCC)cc4)c3C2c2cccs2)cc1` (stereo not drawn), the activation is inactive: 7.53%.

With `CCOC(=O)c1ccc(NC(=O)CC2Nc3ccccc3NC2=O)cc1` (stereo not drawn), the activation is inactive: -29%.

`Cc1cc(-c2ccc(S(=O)(=O)N3CCN(c4ccc(Cl)cc4)CC3)s2)on1`: the activation is inactive: 18.1%.

For the molecule `COc1ccc(NC(=O)c2sc3nc4c(c(-c5ccc(OC)cc5)c3c2N)C(=O)CC(C)(C)C4)cc1`, the activation was inactive: 0.189%.

For `COc1ccc(-c2nc3scc(CCNC(=O)c4cccc(Br)c4)n3n2)cc1`, the activation was active: 71.2%.

As for `Cc1cc2n(n1)CCC(=O)N2Cc1ccc(C(=O)Nc2ccc(F)cc2F)cc1`, the activation was inactive: -12.7%.

For `O=C(Nc1cc(-c2nc3cc(Cl)ccc3o2)ccc1Cl)c1cc([N+](=O)[O-])ccc1N1CCOCC1`, the activation is inactive: 19.2%.

On to `Cc1ccc(CNCc2cccn2-c2nnc(N3CCCC3)s2)cc1`, for which the activation was inactive: -9.24%.

`Cc1ccc(-c2nnc(Nc3ccc(F)cc3)c3ccccc23)cc1S(=O)(=O)N1CCN(C)CC1`: the activation is inactive: 0.259%.

In the case of `O=C(c1ccccc1Cl)N1CCCCC1CCN1CCOCC1` (stereo not drawn), the activation is inactive: -15.6%.

`CCOc1cccc2c1Oc1nc(-c3ccccc3)nc(SCC(=O)Nc3ccc(F)cc3)c1C2`: the activation is inactive: 11.2%.

With `CCN(Cc1ccccc1)C(=O)c1cc2c(=O)[nH]c3ccc(C)cc3c2s1`, the activation was inactive: -5.95%.

For `CCc1nnc(SCC(=O)Nc2cc(OC)ccc2OC)nc1CC`, the activation is inactive: -11.5%.

As to `Cc1ccc(CCNC(=O)c2cc3n(n2)CCCN(Cc2ccc(C)cc2)C3=O)cc1`, the activation is inactive: 0.807%.

For the molecule `Cc1cccc(Cn2c(COc3ccc(Cl)cc3)nc3ccccc32)c1`, the activation is inactive: 13.6%.

Consider `CCOc1ccc(S(=O)(=O)N(CC(=O)NCCSc2ccc(C)cc2)c2ccccc2)cc1`, for which the activation is inactive: 20.7%.

For the molecule `Cc1ccc(NC(=O)N2CCN(c3ccc(Cl)c(Cl)c3)CC2)cc1`, the activation was inactive: -2.58%.

Turning to `COc1ccc(-c2nc(CN3CCC(C(=O)NCCc4ccccc4)CC3)c(C)o2)cc1OC`, the activation is inactive: -8.53%.

Consider `CCCCn1cc(S(=O)(=O)c2ccc(C)c(C)c2)c(=O)c2cc(F)c(N(CC)CC)cc21`, for which the activation was inactive: -5.28%.

On to `CCC(=O)N1CCc2cc(CNC(=O)c3ccc(OC)cc3)ccc21`, for which the activation was inactive: -12%.

As for `CCn1nc(-c2ccccc2)c(-c2ccccc2)c(C(=O)Nc2nc(C)c(C(C)=O)s2)c1=O`, the activation is inactive: -10.5%.

On to `Cn1c(=O)c(=O)n(C)c2cc(N3CCCC3)c(NC(=O)c3ccccc3F)cc21`, for which the activation was inactive: 3.45%.

As to `O=C(Nc1sc2c(c1C(=O)Nc1cccc(Cl)c1)CCCC2)c1cccs1`, the activation was inactive: -4.16%.

Take `Cc1ccc(NC(=O)CSc2nc(=O)n(Cc3ccco3)c3c2CCC3)cc1F`: the activation was inactive: -34.8%.

On to `CCC(=O)N1CCc2cc(CNC(=O)Cc3ccc(F)cc3)ccc21`, for which the activation was inactive: -23.9%.

On to `CCOc1ccc(-c2nnc(SCC(=O)Nc3ccc(C)cc3Cl)o2)cc1`, for which the activation was inactive: 18.1%.

As for `Cc1ccc2c(c1)-c1onc(C(=O)N3CCN(c4cc(Cl)ccc4C)CC3)c1CO2`, the activation was inactive: 6.62%.

For `COC(=O)c1ccccc1NC(=O)c1cc(CN2CCCC2)on1`, the activation was inactive: -10.6%.

As for `N[C@H](C(=O)O)[C@H](Cc1ccccc1)C(=O)O`, the activation was inactive: -7.4%.

`Cc1ccc(NC(=O)c2cc(S(=O)(=O)NC3CCCCC3)ccc2F)cc1Cl`: the activation was inactive: -63.5%.

Regarding `CCn1nnc2cc(C(=O)Nc3ccc(C)c(Cl)c3)ccc21`, the activation is inactive: 4.92%.

As for `Cc1ccc(N(CC(=O)Nc2cc(C)ccc2C)S(=O)(=O)c2c(C)noc2C)cc1`, the activation was inactive: 11.8%.

With `O=S(=O)(c1ccc(Cl)cc1)c1nnn2c1nc(NCc1ccc3c(c1)OCO3)c1sccc12`, the activation was inactive: -5.78%.

For the molecule `Cc1ccc(N=C2NC(=O)CC(C(=O)Nc3cc(C(F)(F)F)ccc3Cl)S2)cc1` (stereo not drawn), the activation is active: 80.5%.

Take `CCOc1ccccc1NC(=O)C1CCN(S(=O)(=O)c2ccc3c(c2)CCCN3C(C)=O)CC1`: the activation is inactive: -0.454%.

Consider `COc1ccc(-n2c(SCC(=O)c3ccccc3)nc3c([nH]c4ccccc43)c2=O)cc1`, for which the activation was inactive: 0.102%.

In the case of `CCCCN(CC)CCNC(=O)C1CCCN(c2ncnc3onc(C)c23)C1` (stereo not drawn), the activation is inactive: 3.24%.

As for `COc1cc(Cl)c(NS(=O)(=O)c2cc(-c3cc(C)no3)ccc2OC)c(OC)c1`, the activation is inactive: -15.4%.

As for `CC(=O)c1ccc(NC(=O)c2ccc(-n3cnnc3)cc2)cc1`, the activation was inactive: -1.31%.

With `CCC(=O)N1c2ccccc2CC1C(=O)NCc1ccc(N(C)C)cc1` (stereo not drawn), the activation is inactive: -6.81%.

As to `Cc1ccc(COC(=O)c2[nH]c3c(c2C)C(=O)CC(c2ccc(N(C)C)cc2)C3)cc1` (stereo not drawn), the activation is inactive: -2.41%.

Take `CCS(=O)(=O)c1ncc(Cl)c(C(=O)Nc2ccccc2)n1`: the activation is inactive: -2.16%.

For the molecule `COC(=O)c1sccc1S(=O)(=O)N(CC(=O)Nc1ccccc1F)c1ccccc1`, the activation is inactive: -25.3%.

For the molecule `CCOc1ccc(C(=O)c2oc3ccccc3c2NC(=O)c2cc(-c3ccc(Cl)cc3)on2)cc1`, the activation was inactive: 14.2%.

Consider `COc1ccc(-c2nnc(SCC(=O)N(C)C3CCCCC3)o2)cc1OC`, for which the activation is inactive: 5.37%.

On to `O=c1oc2c3c(ccc2c2ccccc12)OCN(Cc1ccccc1Cl)C3`, for which the activation is inactive: -59%.
